Data on 43 compounds can be found in paper PMC4336329 (PLoS ONE, 2015).

Screen size: about 310,000 compounds; about 14,000 (4.5%) showed an effect of 50% or more. The effect is printed as a negative number. The list shows a part of the results.
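Further: peak tail current of the secondary pulse compared with the same well before compound.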

Sequence of human ether-à-go-go-related gene (hERG) potassium channel (Q12809 whole entry, looked up): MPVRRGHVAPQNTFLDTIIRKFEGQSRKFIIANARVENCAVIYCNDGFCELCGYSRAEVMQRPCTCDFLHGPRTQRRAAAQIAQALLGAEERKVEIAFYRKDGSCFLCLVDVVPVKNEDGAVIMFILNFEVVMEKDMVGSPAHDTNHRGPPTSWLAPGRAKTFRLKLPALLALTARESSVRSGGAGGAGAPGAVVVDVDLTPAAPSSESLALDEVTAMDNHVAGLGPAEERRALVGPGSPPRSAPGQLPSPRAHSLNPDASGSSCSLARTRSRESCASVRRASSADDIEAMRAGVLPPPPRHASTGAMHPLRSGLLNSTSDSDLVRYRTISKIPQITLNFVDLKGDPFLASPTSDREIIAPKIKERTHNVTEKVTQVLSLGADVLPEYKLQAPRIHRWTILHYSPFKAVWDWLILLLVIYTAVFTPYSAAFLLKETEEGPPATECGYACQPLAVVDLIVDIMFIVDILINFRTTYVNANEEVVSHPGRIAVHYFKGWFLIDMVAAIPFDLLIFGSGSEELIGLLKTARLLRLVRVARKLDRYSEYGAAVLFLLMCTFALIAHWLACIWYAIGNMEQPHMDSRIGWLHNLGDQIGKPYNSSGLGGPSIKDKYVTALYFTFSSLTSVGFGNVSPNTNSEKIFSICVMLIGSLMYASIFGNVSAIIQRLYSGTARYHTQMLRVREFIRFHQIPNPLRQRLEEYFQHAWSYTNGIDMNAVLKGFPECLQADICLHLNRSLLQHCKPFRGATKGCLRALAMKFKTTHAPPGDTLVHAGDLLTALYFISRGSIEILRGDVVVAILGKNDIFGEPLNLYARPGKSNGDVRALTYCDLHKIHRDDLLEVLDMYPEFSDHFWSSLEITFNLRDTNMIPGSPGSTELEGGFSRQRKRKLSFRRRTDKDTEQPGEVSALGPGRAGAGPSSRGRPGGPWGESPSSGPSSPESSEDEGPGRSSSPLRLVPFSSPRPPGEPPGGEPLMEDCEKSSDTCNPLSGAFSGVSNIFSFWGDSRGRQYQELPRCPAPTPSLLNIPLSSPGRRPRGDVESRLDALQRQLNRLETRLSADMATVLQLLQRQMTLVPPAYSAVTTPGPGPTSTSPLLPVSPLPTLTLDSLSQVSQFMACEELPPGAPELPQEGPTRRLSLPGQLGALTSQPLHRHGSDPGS

This test addresses human ether-à-go-go-related gene (hERG) potassium channel (human, UniProt Q12809). The test is described as follows: primary screen, population patch clamp on CHO cells stably expressing hERG.
In the case of `Cc1ccc(CNC(=O)c2coc(=O)c3ccccc23)o1`, the “hERG current change (%, negative = inhibition) at 10uM” value is recorded as 3.63%.

Consider `Cc1cc(NC(=O)c2cc(-c3cccc(OCC(C)C)c3)nc3ccccc23)no1`, for which the “hERG current change (%, negative = inhibition) at 10uM” value was found to be 18.5%. `CC(=O)c1ccc(N2CCN(C(=O)Cc3cccs3)CC2)cc1`: the “hERG current change (%, negative = inhibition) at 10uM” value is given as -33.3%. `NC(=O)c1ccc(NC(=O)c2ccc(COc3ccc(F)cc3)o2)cc1`: the “hERG current change (%, negative = inhibition) at 10uM” value is reported as 3.47%. `COc1ccc(NC(=O)CN(C)C(=O)C2CC(=O)N(Cc3ccc(C)cc3)C2)cc1` (stereo not shown): the “hERG current change (%, negative = inhibition) at 10uM” value amounted to 4.41%. On to `COc1ccc(-n2cc([N+](=O)[O-])c(=O)c3ccc(Cl)cc32)cc1`, for which the “hERG current change (%, negative = inhibition) at 10uM” value is reported as -2.07%.

`CC1(C)CC(=O)C(=CN2CCOCC2)C(=O)C1`: the “hERG current change (%, negative = inhibition) at 10uM” value is given as -0.13%. As for `O=C(O)c1cc(S(=O)(=O)N2CCCCCC2)c(Cl)cc1Cl`, the figure is 1.49%. Then `CCOC(=O)c1c(C)c(-c2ccccc2)n(CC(=O)N2CCN(C)CC2)c1C`, with -5.56%.

Turning to `COc1ccc(-c2noc(CN(C)S(=O)(=O)c3ccccc3)n2)cc1OC`, the “hERG current change (%, negative = inhibition) at 10uM” value came out at 11.2%.

`O=C(c1ccc(CS(=O)(=O)c2ccc(Br)cc2)o1)N1CCOCC1`: the “hERG current change (%, negative = inhibition) at 10uM” value was -13.9%.

Consider `CC(C)(C)c1ccc(S(=O)(=O)N2CCN(Cc3cc4c(cc3O)OCO4)CC2)cc1`, for which the “hERG current change (%, negative = inhibition) at 10uM” value is -9.21%. As to `COCCn1c(C)cc(C(=O)COC(=O)CCc2ccc(S(=O)(=O)N3CCOCC3)cc2)c1C`, the “hERG current change (%, negative = inhibition) at 10uM” value was 2.19%. As to `CCCC(=O)NNC(=O)CCC(=O)NCc1ccccc1`, the “hERG current change (%, negative = inhibition) at 10uM” value was determined as 9.44%. In the case of `O=C(NCCc1ccccc1)c1ccc2c(c1)OCCCO2`, the “hERG current change (%, negative = inhibition) at 10uM” value was 17.4%. As for `O=C(c1ccccc1)c1c2c(cc3sc4ccccc4[n+]13)-c1cccc3cccc-2c13.[Br-]`, the “hERG current change (%, negative = inhibition) at 10uM” value is -76.8%. Consider `COc1ccc(/C=N/Nc2ccccn2)c(OC)c1OC`, for which the “hERG current change (%, negative = inhibition) at 10uM” value was found to be 3.27%. With `Cc1nnc(N/N=C/C2CC=CCC2)[nH]c1=O` (stereo not shown), the “hERG current change (%, negative = inhibition) at 10uM” value is on record as 7.06%.

As to `CN(CCO)c1cc(N(C)CCO)c([N+](=O)[O-])cc1[N+](=O)[O-]`, the “hERG current change (%, negative = inhibition) at 10uM” value was found to be 2.07%.

Regarding `Nc1nccnc1C(=O)OCC(=O)N1CCN(S(=O)(=O)c2ccc(Cl)cc2)CC1`, the “hERG current change (%, negative = inhibition) at 10uM” value is recorded as -15.4%.

For `Cc1ccc(NCC(O)C(O)C(O)CO)cc1C` (stereo not shown), the “hERG current change (%, negative = inhibition) at 10uM” value came to 14.9%.

Take `Cn1c(NC(=O)C[n+]2cc(-c3ccc(Cl)c(Cl)c3)n3c2CCC3)cc(=O)n(C)c1=O.[Cl-]`: the “hERG current change (%, negative = inhibition) at 10uM” value was -8.45%. On to `Cc1cc(=O)[nH]c(N/N=C/c2ccc(N(C)C)cc2)n1`, for which the “hERG current change (%, negative = inhibition) at 10uM” value is listed as -0.898%. Consider `O=C(Nc1ccc(F)cc1)c1cc(-c2ccccn2)nc2c(Cl)cccc12`, for which the “hERG current change (%, negative = inhibition) at 10uM” value was 14.3%. For the compound `CC1CCCCC1NC(=O)CSc1nnc(-c2ccccc2)n1N` (stereo not shown), the “hERG current change (%, negative = inhibition) at 10uM” value amounted to 9.28%. As for `Cc1cc2[nH]c(=O)c(=O)[nH]c2cc1S(=O)(=O)N1CCN(c2ccccc2F)CC1`, the “hERG current change (%, negative = inhibition) at 10uM” value is 18.1%. As for `Cc1ccc(-n2nnnc2-c2cccs2)cc1[N+](=O)[O-]`, the figure is -11.8%; as for `CC1CCC2(CC1)N=C(N)Nc1nc3ccccc3n12` (stereo not shown), -13.6%; as for `COc1cccc(OCC(=O)Nc2ccncc2)c1`, 5.03%. `CN(c1ccccc1)c1nc(-n2ccnc2)nc(-n2ccnc2)n1`: the “hERG current change (%, negative = inhibition) at 10uM” value is on record as -67.7%.

In the case of `NC(=O)NOCc1cccc(Cl)c1`, the “hERG current change (%, negative = inhibition) at 10uM” value was determined as 12.2%. On to `O=c1c2ccccc2cnn1Cc1ccc(Cl)c(Cl)c1`, for which the “hERG current change (%, negative = inhibition) at 10uM” value is on record as 12.1%.

Turning to `COc1cccc(C(=O)OCC(=O)c2c[nH]c3ccccc23)c1OC`, the “hERG current change (%, negative = inhibition) at 10uM” value was 6.17%. For `CN(C)C(/C=C/Nc1ccc(Br)cc1)=C(C#N)C#N`, the “hERG current change (%, negative = inhibition) at 10uM” value is given as -17.9%.

As for `COc1ccc2[nH]c(=O)c(CN(C(=O)C(C)C)c3ccccc3OC)cc2c1`, the “hERG current change (%, negative = inhibition) at 10uM” value is given as -2.54%. Regarding `O=C(c1ccc2c(c1)OCO2)N1CCC2(CC1)Oc1ccc(Cl)cc1C(=O)C21CC(c2cccnc2)=NO1` (stereo not shown), the “hERG current change (%, negative = inhibition) at 10uM” value was -12.2%. For `CC(=O)NCCNC(=O)C1CCCCN1S(=O)(=O)c1ccccc1` (stereo not shown), the “hERG current change (%, negative = inhibition) at 10uM” value was determined as 5.43%. `Cc1noc(C)c1C(=O)Nc1sc(C)c(-c2ccccc2)c1C#N`: the “hERG current change (%, negative = inhibition) at 10uM” value was -2.24%. Take `CCOC(=O)CNC(=O)CNC(=O)c1ccc(OC)cc1`: the “hERG current change (%, negative = inhibition) at 10uM” value was found to be 13.9%. As for `Cc1ccc(Cl)cc1NC(=O)C1CCCN(S(=O)(=O)c2c(C)noc2C)C1` (stereo not shown), the figure is 6.08%; as for `O=C(CSc1nnc(Cc2cccs2)n1Cc1ccco1)Nc1cc(Cl)cc(Cl)c1`, -8.25%; as for `CC(=O)n1cc(/C=N/NC(=O)c2cccc(O)c2)c2ccccc21`, 2.85%.

With `Cc1ccc(S(=O)(=O)N(CC(=O)NCc2ccccn2)c2ccc(Cl)cc2)cc1`, the “hERG current change (%, negative = inhibition) at 10uM” value is on record as -29.7%.
